Experimental data as given in PubChem BioAssay AID1454 (National Center for Advancing Translational Sciences (NCATS), 2008).
Several values for one entry are separate records, joined by “and”; a condition that tells them apart may be missing. Identical values can stand only once. About 550 (0.42%) of roughly 130,000 compounds were called active. The shares of active, inactive and inconclusive entries below differ from those in the screen. Calls come from the whole dose curve; as a rule, active = well fitted inhibition curve with a large enough effect; inconclusive = small, poorly fitted or top-dose-only effect, or effect the other way; inactive = flat fitted curve, though single readings scatter. Potencies of inconclusive entries are doubtful fits and often do not repeat.
Potency is the fitted concentration of half-maximal effect; tags give direction and shape of the fitted curve.

Assay: qHTS Assay for Inhibitors of the ERK Signaling Pathway using a Homogeneous Screening Assay; Stimulation with EGF; note: nearly all actives have a fitted effect of over 55% in size
Details: HEK293-V1b, EGF-stimulated phospho-ERK AlphaScreen
Outline: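 HEK293 cells stably expressing V1b receptor, serum-reduced (1% FBS) overnight, got compound for 30 min at 37C, then 25 nM EGF for 5 min. Lysate phospho-ERK read by AlphaScreen SureFire; AC50 from Hill fits.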
In the case of O=C(NN=C1CCCC1)c1[nH]c2ccc(Br)cc2c1-c1ccccc1, the Potency was inconclusive: 39.8 µM [inhibitor, single point]. For C=CCNc1nc(-c2c(C)nc3sccn23)cs1, the Potency was “inactive”. With CC(=O)N1[C@H](C)C=C[C@]1(Cc1ccccc1)C(=O)NCc1ccc(C)o1 the Potency was inconclusive: 25.1 µM [inhibitor, single point]. For COc1ccc([C@@H]2OC2(C(N)=O)C(N)=O)cc1, the Potency was “inactive”. With O=C(O)/C=C1\CCCc2ccccc2[C@H]1O the Potency was “inactive”. For Cc1cc(SCC(=O)c2ccc(O)c(O)c2)n2nc(C)c(-c3ccccc3)c2n1, the Potency was inconclusive: 25.1 µM [inhibitor, single point]. For C=CCN1C=CC(=C/C=C(/C#N)C(=O)OCC)C=C1, the Potency was “inactive”. In the case of CC(C)CCNC(=O)NC(=O)COC(=O)CCN=C1NS(=O)(=O)c2ccccc21, the Potency was inconclusive: 28.2 µM [inhibitor, partial curve]. With CNC(=S)N/N=C/c1ccc(N(C)C)cc1 the Potency was inconclusive: 22.4 µM [inhibitor, single point]. In the case of CCN(CC)CC(=O)Nc1ccc(Oc2ccc(NC(=O)CN(CC)CC)cc2)cc1, the Potency was “inactive”. With Cc1cccn2cc(-c3c[nH]c4ccccc34)nc12 the Potency was inconclusive: 39.8 µM [inhibitor, single point]. For Brc1cccc(CNc2nc3ccccc3n2CCN2CCCCC2)c1, the Potency was inconclusive: 3.55 µM [inhibitor, full curve, poor fit]. For CN(C)S(=O)(=O)c1ccc(-c2csc(N/N=C/c3ccco3)n2)cc1, the Potency was active: 20 µM. For COC(=O)c1cc(-c2ccc(C)o2)nc2ccccc12, the Potency was inconclusive: 39.8 µM [activator, single point]. In the case of CCOC(=O)c1cc(-c2ccccc2)nc2nc(N3CCCCC3)sc12, the Potency was inconclusive: 22.4 µM [activator, partial curve]. In the case of Cc1ccccc1NC(=O)COc1ccc2c(c1)OC(C)(C)CC2=O, the Potency was inconclusive: 39.8 µM [inhibitor, single point]. In the case of Cc1ccc(-n2cc(CNCCCn3ccnc3C)c(-c3ccc(F)cc3)n2)cc1, the Potency was inconclusive: 31.6 µM [inhibitor, partial curve]. For COc1ccc(OC)c(-c2nc3cc4ccccc4cc3nc2-c2ccccc2)c1, the Potency was inconclusive: 39.8 µM [activator, single point]. In the case of Clc1ccc(/C=N/N2CCCCC2)cc1, the Potency was inconclusive: 0.316 µM [activator, partial curve]. With O=[N+]([O-])c1cccc(-c2ccc(C(=S)N3CCN(c4ccccc4)CC3)o2)c1 the Potency was active: 25.1 µM. For Cc1nnc(SCC2=C(C(=O)O)N3C(=O)C(NC(=O)Cn4ncc(Cl)c4C)C3SC2)s1 (centres undefined), the Potency was inconclusive: 0.112 µM [activator, full curve, poor fit]. With COc1cc(/C=C2\C(=O)ON=C2c2ccccc2)cc(Cl)c1O the Potency was “inactive”. In the case of CC1(C)CC(N2CCCC2)=CC(=[N+]2CCCCCC2)C1, the Potency was “inactive”. With COc1ccc(CNC(=O)c2cc(COc3c(F)cccc3F)on2)cc1OC the Potency was inconclusive: 0.126 µM [inhibitor, partial curve, poor fit]. With Cc1ncc([N+](=O)[O-])n1CCO the Potency was inconclusive: 8.91 µM [inhibitor, single point] and inconclusive: 15.8 µM [inhibitor, partial curve]. For CC(OC(=O)c1ccc2c(=O)n3c(nc2c1)CCCCC3)C(N)=O (centres undefined), the Potency was “inactive”. With COc1ccc(/C=C/C(=O)c2ccc(OC)cc2O)cc1 the Potency was inconclusive: 39.8 µM [inhibitor, single point]. In the case of COc1ccc(-n2cc(CNCc3cnc4ccccn34)c(-c3cccc(F)c3)n2)cc1, the Potency was inconclusive: 25.1 µM [inhibitor, partial curve]. In the case of NS(=O)(=O)c1ccc(N/N=C/c2cn(-c3ccccc3)nc2-c2cccs2)c([N+](=O)[O-])c1, the Potency was inconclusive: 28.2 µM [inhibitor, single point]. For CCOC(=O)c1sc2nc(CN3CCCCC3)nc(Cl)c2c1C, the Potency was “inactive”. With COc1ccc(NC(=O)CSc2nc3ccccc3n2-c2ccccc2)c([N+](=O)[O-])c1 the Potency was inconclusive: 8.91 µM [inhibitor, partial curve]. In the case of O=C1S/C(=C\c2ccc(N3CCOCC3)o2)C(=O)N1c1ccccc1, the Potency was “inactive”. With COc1ccc(C(=O)N2CCC[C@@]3(CCN(c4ccccc4)C3)C2)cc1 the Potency was “inactive”. For Cn1cccc1C(=O)N1CCC2(CC1)CN(c1cccc(-c3ccccc3)c1)C2, the Potency was inconclusive: 39.8 µM [inhibitor, single point]. In the case of O=C(Nc1ccc(Br)cc1)c1ccc(F)c(S(=O)(=O)NCc2cccs2)c1, the Potency was inconclusive: 25.1 µM [inhibitor, single point]. With CCN(c1ccccc1)S(=O)(=O)c1cc(C(=O)Nc2ccc(F)c(F)c2)ccc1F the Potency was inconclusive: 28.2 µM [inhibitor, single point]. For CN(CC1CCCO1)S(=O)(=O)c1ccc(C(=O)N2CCN(c3ccccc3)CC2)cc1 (centres undefined), the Potency was inconclusive: 39.8 µM [inhibitor, single point]. With COCCN1CCN(c2cc(-c3ccccc3)nc3cc(-c4cccc(F)c4)nn23)CC1 the Potency was inconclusive: 39.8 µM [inhibitor, single point]. In the case of Cc1ccc2c(c1)-c1c(ssc1=S)C(C)(C)N2C(=O)c1ccco1, the Potency was active: 12.6 µM. For O=C1c2cccc(OCc3ccc(F)cc3)c2CCN1Cc1ccc(F)cc1, the Potency was “inactive”. For Oc1nc(Nc2ccc(F)cc2)sc1/C=C1\C=Nc2ccccc21, the Potency was inconclusive: 28.2 µM [inhibitor, single point]. With O=c1c(-c2cccs2)nc2cnc(Oc3ccccc3)nc2n1C1CC1 the Potency was inconclusive: 25.1 µM [activator, partial curve, poor fit]. For Cn1c(=O)oc2cc(S(=O)(=O)N3CCCC(C(=O)N4CCn5c4nc4ccccc45)C3)ccc21 (centres undefined), the Potency was “inactive”. With Cc1ccc(SCc2c(C(=O)N/N=C/c3ccccc3)nnn2-c2nonc2N)cc1 the Potency was inconclusive: 31.6 µM [inhibitor, single point]. With Cc1ccc(NC(=O)CSc2nnnn2-c2ccc3c(c2)OCO3)cc1C the Potency was “inactive”. In the case of O=S(=O)(c1ccc(NC(=S)N2CCN(c3ccccc3F)CC2)cc1)N1CCOCC1, the Potency was inconclusive: 31.6 µM [inhibitor, single point]. In the case of Cc1ccc(CNC(=O)CCC2CCCN(Cc3cc4ccccc4o3)C2)o1 (centres undefined), the Potency was inconclusive: 39.8 µM [inhibitor, single point]. With O=C(Nc1ccc(Cl)cc1)Nc1cc([N+](=O)[O-])ccc1F the Potency was “inactive”. For Nc1ccccc1SSc1ccccc1N, the Potency was “inactive”. For Cc1ccc(C)c(NC(=S)c2nc3ccccc3s2)c1, the Potency was inconclusive: 11.2 µM [inhibitor, partial curve]. With C/C=C\C(=O)N(CC)c1ccccc1C the Potency was “inactive”. For Cc1cccc(NC(=S)NC(C)(C)CC(C)(C)C)c1, the Potency was “inactive”. With O=C(NCc1cccc(CNC(=O)C(=O)NCC2CCCO2)c1)C(=O)NCC1CCCO1 (centres undefined) the Potency was “inactive”. With O=C(NC1CCCCNC1=O)c1ccccc1 (centres undefined) the Potency was “inactive”. With Cc1[nH]c2ccccc2c1C(=O)/C=C\c1ccccc1Cl the Potency was inconclusive: 39.8 µM [inhibitor, single point]. With CC(C)(C)OC(=O)N1CCC(NC(=O)c2[nH]cnc2C(=O)N[C@@H](Cc2ccccc2)C(=O)OCc2ccccc2)CC1 the Potency was inconclusive: 39.8 µM [inhibitor, single point]. With O=S(N1CCc2ccccc21)C12CC3CC(CC(C3)C1)C2 (centres undefined) the Potency was inconclusive: 39.8 µM [inhibitor, single point]. With O=C(Nc1ccc2ccccc2n1)Nc1cccs1 the Potency was inconclusive: 39.8 µM [inhibitor, single point]. For CCCCC1=CC2=C(c3ccco3)C(=O)C(C)(OC(=O)c3ccc(OC)cc3)C(=O)C2=CN1Cc1ccccc1 (centres undefined), the Potency was inconclusive: 39.8 µM [inhibitor, single point]. With CCCCCOc1ccc(Br)cc1/C(C)=N/NC1=NCCN1 the Potency was inconclusive: 35.5 µM [inhibitor, single point]. For CS(=O)(=O)c1ccc(S(=O)CC(=O)OCc2ccccc2)c([N+](=O)[O-])c1 (centres undefined), the Potency was inconclusive: 39.8 µM [inhibitor, single point]. In the case of O=C(Nc1ccc(Cl)cn1)c1cc2c(s1)-c1ccccc1OC2, the Potency was inconclusive: 25.1 µM [activator, partial curve]. For O=C1/C(=C/c2ccc(O)c([N+](=O)[O-])c2)SC(=S)N1Cc1ccccc1, the Potency was inconclusive: 20 µM [inhibitor, partial curve]. In the case of CS(=O)(=O)N1CCC2(CCN(c3cccc(-c4ccccc4)c3)CC2)CC1, the Potency was inconclusive: 14.1 µM [inhibitor, partial curve, poor fit]. For CC(=O)c1ccc(N2CCN(C(=O)c3cc(C)on3)CC2)cc1, the Potency was “inactive”. With Cc1cccc(-n2nc(C(=O)c3ccco3)cc(-c3nc4ccccc4[nH]3)c2=N)c1 the Potency was inconclusive: 17.8 µM [inhibitor, single point]. In the case of COC(=O)C1=C(C(=O)OC)[C@@H]2N(C)c3ccc(OC)cc3[C@@]23C[C@@H](C(=O)OC)N(S(=O)(=O)c2ccc([N+](=O)[O-])cc2)C3=N1, the Potency was inconclusive: 20 µM [inhibitor, partial curve]. For O=S(=O)(c1ccccc1)c1nc(-c2ccccc2)oc1N1CCCC1, the Potency was inconclusive: 8.91 µM [activator, partial curve]. For O=C(Nc1ccc([N+](=O)[O-])cc1)Nc1ccc2c(c1)OCCO2, the Potency was inconclusive: 35.5 µM [inhibitor, single point].
